Experimental data reported in US6448281B1 (Boehringer Ingelheim (Canada) Ltd., priority 2000, dated 2002).

Biological target: hepatitis C virus RNA dependent polymerase (NS5B) (Hepacivirus hominis (Hepatitis C virus), UniProt P26663)
Assay: Inhibition of NS5B RNA dependent RNA polymerase activity (SPA, UMP-[5,6 3H] incorporation)
[1] = IC50 μM, first compound table (printed title TABLE 10; Table 1)

SMILES: CCC(C)c1nc2cc(C(=O)NC(C(=O)O)c3ccc(OC)c(OC)c3)ccc2n1C1CCCCC1 (centres unmarked) [Entry 2032]
- IC50 (IC50 μM, Table 2): 10 to 25 µM

SMILES: COc1ccc(C(NC(=O)c2ccc3c(c2)nc(-c2ccc(O)c(O)c2)n3C2CCCCC2)C(=O)O)cc1OC (centres unmarked) [Entry 2029]
- IC50 (IC50 μM, Table 2): 10 to 25 µM

SMILES: O=C(O)COc1ccc2[nH]cc(CCNC(=O)c3ccc4c(c3)nc(-c3ccoc3)n4C3CCCCC3)c2c1 [Entry 11011]
- IC50 (IC50, Table 11): < 1 µM

SMILES: O=C(N[C@@H](Cc1c[nH]c2ccc(O)cc12)C(=O)O)c1ccc2c(c1)nc(-c1ccccn1)n2C1CCCCC1 [Entry 12011]
- IC50 (IC50, Table 12): < 1 µM

SMILES: O=C(N[C@@H](Cc1c[nH]c2ccc(Nc3c(O)c(=O)c3=O)cc12)C(=O)O)c1ccc2c(c1)nc(-c1ccoc1)n2C1CCCCC1 [Entry 11027, (S)-2-{[1-(1-Cyclohexyl-2-furan-3-yl-1H-benzimidazol-5-yl)-methanoyl]-amino}-3-[5-(2-hydroxy-3,4-dioxo-cyclobut-1-enylamino)-1H-indol-3-yl]-propionic Acid]
- IC50 (IC50, Table 11): < 1 µM

SMILES: O=C(O)COc1ccc2[nH]cc(C[C@H](NC(=O)c3ccc4c(c3)nc(-c3ccc(OCC(=O)NCCNC(=O)c5ccc(C(=O)c6ccccc6)cc5)cc3)n4C3CCCCC3)C(=O)O)c2c1 [Entry 12026, (S)-3-(5-Carboxymethoxy-1H-indol-3-yl)-2-({1-[1-cyclohexyl-2-(4-{[2-({1-[4-(1-phenyl-methanoyl)-phenyl]-methanoyl}-amino)-ethylcarbamoyl]-methoxy}-phenyl)-1H-benzimidazol-5-yl]-methanoyl}-amino)-propionic Acid]
- IC50 (IC50, Table 12): < 1 µM

SMILES: O=C(O)c1cccc(CN2CCCC(NC(=O)c3ccc4c(c3)nc(-c3ccoc3)n4C3CCCCC3)C2)c1 (centres unmarked) [Entry 1291]
- IC50 [1]: 1 to 5 µM

SMILES: O=C(N[C@@H](Cc1ccc(O)cc1)C(=O)Nc1cccnc1)c1ccc2c(c1)nc(-c1ccoc1)n2C1CCCCC1 [Entry 1111]
- IC50 [1]: 1 to 5 µM

SMILES: O=C(N[C@@H](Cc1c[nH]c2ccc(O)cc12)C(=O)O)c1ccc2c(c1)nc(-c1ccoc1)n2[C@@H]1CCCC[C@H]1OCc1ccccc1 [Entry 22018]
- IC50 (IC50 μM, Table 22): < 1 µM

SMILES: Cc1cc(CC(NC(=O)c2ccc3c(c2)nc(-c2ccoc2)n3C2CCCCC2)C(=O)O)cc(Cl)c1O (racemic) [Entry 1152, 3-(3-Chloro-4-hydroxy-5-methyl-phenyl)-2-{[1-(1-cyclohexyl-2-furan-3-yl-1H-benzimidazol-5-yl)-methanoyl]-amino}-propionic Acid]
- IC50 [1]: 1 to 5 µM

SMILES: O=C(N[C@@H](Cc1c[nH]c2ccc(O)cc12)C(=O)O)c1ccc2c(c1)nc(-c1ccoc1)n2[C@@H]1CCCC[C@H]1O [Entry 22003]
- IC50 (IC50 μM, Table 22): < 1 µM

SMILES: COc1ccc(C(NC(=O)c2ccc3c(c2)nc(-c2ccccn2)n3C2CCCCC2)C(C)C)cc1OC (centres unmarked) [Entry 2012]
- IC50 (IC50 μM, Table 2): 10 to 25 µM

SMILES: COc1ccc(C(NC(=O)c2ccc3c(c2)nc(-c2cccc(C(=O)O)c2)n3C2CCCCC2)C(=O)O)cc1OC (centres unmarked) [Entry 2035]
- IC50 (IC50 μM, Table 2): 10 to 25 µM

SMILES: O=C(C[C@@H](O)C(=O)O)Nc1ccc(C[C@H](NC(=O)c2ccc3c(c2)nc(-c2ccoc2)n3C2CCCCC2)C(=O)O)cc1 [Entry 16045]
- IC50 (IC50, Table 16): < 1 µM

SMILES: O=C(O)COc1ccc(CN2CCC(NC(=O)c3ccc4c(c3)nc(-c3ccoc3)n4C3CCCCC3)CC2)cc1 [Entry 1286]
- IC50 [1]: 10 to 25 µM

SMILES: C=CCC(C)(C)c1nc2cc(C(=O)N[C@@H](Cc3c[nH]c4ccc(O)cc34)C(=O)O)ccc2n1C1CCCCC1 [Entry 2088]
- IC50 (IC50 μM, Table 2): 10 to 25 µM

SMILES: O=C(N[C@H]1CC[C@H](NCc2ccccc2C(=O)O)CC1)c1ccc2c(c1)nc(-c1ccoc1)n2C1CCCCC1 [Entry 1269]
- IC50 [1]: 10 to 25 µM

SMILES: O=C(N[C@@H](Cc1ccc(O)cc1)C(=O)NCc1ccncc1)c1ccc2c(c1)nc(-c1ccoc1)n2C1CCCCC1 [Entry 1112]
- IC50 [1]: 1 to 5 µM

SMILES: O=C(NC(Cc1c[nH]c2ccc(O)cc12)C(=O)O)c1ccc2c(c1)nc(-c1ccoc1)n2C1CC2CCC1C2 (centres unmarked) [Entry 22009]
- IC50 (IC50 μM, Table 22): < 1 µM

SMILES: COC(=O)COc1ccc(C[C@H](NC(=O)c2ccc3c(c2)nc(-c2ccoc2)n3C2CCCCC2)C(=O)O)cc1 [Entry 1124, (S)-2-{[1-(1-Cyclohexyl-2-furan-3-yl-1H-benzimidazol-5-yl)-methanoyl]-amino}-3-(4-methoxycarbonylmethoxy-phenyl)-propionic Acid]
- IC50 [1]: 1 to 5 µM

SMILES: O=C(N[C@@H](Cc1ccc(O)cc1)c1cscn1)c1ccc2c(c1)nc(-c1ccoc1)n2C1CCCCC1 [Entry 1250, 1-Cyclohexyl-2-furan-3-yl-1H-benzimidazole-5-carboxylic Acid [(S)-2-(4-Hydroxy-phenyl)-1-thiazol-4-yl-ethyl]-amide]
- IC50 [1]: 1 to 5 µM

SMILES: O=C(N[C@@H](Cc1ccc(OCc2nnn[nH]2)cc1)C(=O)O)c1ccc2c(c1)nc(-c1ccoc1)n2C1CCCCC1 [Entry 16022, (S)-2-{[1-(1-Cyclohexyl-2-furan-3-yl-1H-benzoimidazol-5-yl)-methanoyl]-amino}-3-[4-(1H-tetrazol-5-ylmethoxy)-phenyl]-propionic Acid]
- IC50 (IC50, Table 16): < 1 µM

SMILES: O=C(O)COc1ccc2[nH]cc(CC(NC(=O)c3ccc4c(c3)nc(-c3ccoc3)n4C3CCCCC3)C(=O)O)c2c1 (centres unmarked) [Entry 11014]
- IC50 (IC50, Table 11): < 1 µM

SMILES: O=C(O)COc1ccc2c(c1)c(C[C@H](NC(=O)c1ccc3c(n1)nc(-c1ccoc1)n3C1CCCCC1)C(=O)O)cn2CC(=O)O [Entry 5003, (S)-3-(5-Carboxymethoxy-1-carboxymethyl-1H-indol-3-yl)-2-{[1-(1-cyclohexyl-2-furan-3-yl-1H-imidazo[4,5-b]pyridin-5-yl)-methanoyl]-amino}-propionic Acid]
- IC50 (IC50 μM, Table 5): < 1 µM

SMILES: O=C(NC(Cc1c[nH]c2ccc(O)cc12)C(=O)O)c1ccc2c(c1)nc(C1CCOC1)n2C1CCCC1O (centres unmarked) [Entry 8002]
- IC50 (IC50 μM, Table 8): 5 to 10 µM

SMILES: O=C(NC(Cc1ccc2ccccc2c1)C(=O)O)c1ccc2c(c1)nc(-c1ccoc1)n2C1CCCCC1 (centres unmarked) [Entry 1029]
- IC50 [1]: 5 to 10 µM

SMILES: O=C(NC1CCN(C(=O)Nc2ccccc2C(=O)O)CC1)c1ccc2c(c1)nc(-c1ccoc1)n2C1CCCCC1 [Entry 1201]
- IC50 [1]: 10 to 25 µM

SMILES: COc1cc(CNC(=O)c2ccc3c(c2)nc(-c2ccccn2)n3C2CCCCC2)cc(OC)c1OC [Entry 2008]
- IC50 (IC50 μM, Table 2): 10 to 25 µM

SMILES: O=C(O)COc1ccccc1CN1CCC(CNC(=O)c2ccc3c(c2)nc(-c2ccoc2)n3C2CCCCC2)CC1 [Entry 1262]
- IC50 [1]: 10 to 25 µM

SMILES: O=C(O)CC(NC(=O)c1ccc2c(c1)nc(-c1ccccn1)n2C1CCCCC1)c1ccccc1 (centres unmarked) [Entry 2056]
- IC50 (IC50 μM, Table 2): 5 to 10 µM

SMILES: O=C(O)COc1ccc(CC(OC(=O)c2ccc3c(c2)nc(-c2ccoc2)n3C2CCCCC2)C(=O)O)cc1 (racemic) [Entry 5005, 1-Cyclohexyl-2-furan-3-yl-1H-benzimidazole-5-carboxylic Acid 1-Carboxy-2-(4-carboxymethoxy-phenyl)-ethyl Ester]
- IC50 (IC50 μM, Table 5): < 1 µM

SMILES: O=C(N[C@@H](Cc1c[nH]c2ccc(O)cc12)C(=O)O)c1ccc2c(c1)nc(-c1cccc(O)n1)n2C1CCCCC1 [Entry 2120]
- IC50 (IC50 μM, Table 2): 1 to 5 µM

SMILES: CNc1nc([C@H](Cc2ccc(O)cc2)NC(=O)c2ccc3c(c2)nc(-c2ccoc2)n3C2CCCCC2)cs1 [Entry 1240, 1-Cyclohexyl-2-furan-3-yl-1H-benzimidazole-5-carboxylic Acid [(S)-2-(4-Hydroxy-phenyl)-1-(2-methylamino-thiazol-4-yl)-ethyl]-amide]
- IC50 [1]: 1 to 5 µM

SMILES: O=C(O)COc1ccc(C[C@H](NC(=O)c2ccc3c(c2)nc(-c2ccoc2)n3C2CCCCC2)c2cscn2)cc1 [Entry 1150]
- IC50 [1]: 1 to 5 µM

SMILES: O=C(N[C@@H](Cc1c[nH]c2ccc(O)cc12)C(=O)O)c1ccc2c(c1)nc(-c1cccc(Oc3ccccc3)c1)n2C1CCCCC1 [Entry 2084]
- IC50 (IC50 μM, Table 2): 1 to 5 µM
